Results published in the supplement of paper PMC10037445.
In all, about 2,900 compounds were measured (“NF-kB SEAP reporter activity, fold change vs agonist alone”: median about 0.99, highest 2% from about 2.6 on). The list shows a part of the results.

What was measured:
[1] = tested on: RAW-Dual; assay: NF-kB SEAP reporter activity, fold change vs agonist alone; higher = enhanced NF-kB activity; settings: cytotoxicity flag (confluency mask): not cytotoxic
Summary of the method: (§1)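 Library stock was pin-tooled at 50 nL into 384-well plates of RAW-Dual macrophages (50,000 cells/well, DMEM), followed 1 h later by a PRR agonist, and the cells were kept at 37 °C, 5% CO2. Supernatant collected after 20 hours was read for IRF by QuantiLuc luminescence and for NF-κB by QuantiBlue absorbance at 620 nm. Reporter activity is fold change over agonist-alone wells, and a well counted as cytotoxic when its IncuCyte confluency was below 70% of agonist controls in both mask sets.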

[2] = tested on: RAW-Dual; assay: NF-kB SEAP reporter activity, fold change vs agonist alone; cytotoxicity flag (confluency mask): not cytotoxic; higher = enhanced NF-kB activity
Summary of the method: as §1

[3] = library stock concentration (final ~1000-fold dilution): 10 mM, agonist: Imiquimod (TLR7) […]
[4] = library stock concentration (final ~1000-fold dilution): 10 mM, agonist: MPLA (TLR4) […]
[5] = agonist: ODN 1826 (TLR9) 0.5 ug/mL
[6] = agonist: Pam2CSK4 (TLR2/6) 0.1 ug/mL
[7] = agonist: Pam3CSK4 (TLR2/1) 0.1 ug/mL

Cc1nc(NC(=O)N2CCCC2C(N)=O)sc1-c1csc(C(C)(C)C)n1 (centres undefined)
NF-kB SEAP reporter activity [1, 3]: 1.01
NF-kB SEAP reporter activity [1, 4]: 0.941

O=C(O)c1ccc(-n2nc(-c3ccccc3O)nc2-c2ccccc2O)cc1 (library stock concentration (final ~1000-fold dilution): 10 mM)
NF-kB SEAP reporter activity ([2]; agonist: LPS (TLR4) 0.1 ug/mL): 1.37
NF-kB SEAP reporter activity [2, 5]: 1.05
NF-kB SEAP reporter activity [2, 6]: 0.98
NF-kB SEAP reporter activity [2, 7]: 0.979

O=C(O)c1ccc(-n2nc(-c3ccccc3O)nc2-c2ccccc2O)cc1
NF-kB SEAP reporter activity [1, 3]: 1.12
NF-kB SEAP reporter activity [1, 4]: 1.08

Cc1cc(C#N)cc(C)c1Oc1nc(Nc2ccc(C#N)cc2)nc(N)c1Br
NF-kB SEAP reporter activity [1, 3]: 1.8
NF-kB SEAP reporter activity [1, 4]: 1.86

Cc1cc(C#N)cc(C)c1Oc1nc(Nc2ccc(C#N)cc2)nc(N)c1Br (library stock concentration (final ~1000-fold dilution): 10 mM)
NF-kB SEAP reporter activity ([2]; agonist: LPS (TLR4) 0.1 ug/mL): 1.78
NF-kB SEAP reporter activity [2, 5]: 1.16
NF-kB SEAP reporter activity [2, 6]: 0.538
NF-kB SEAP reporter activity [2, 7]: 0.712

C=CC1(C)CC(OC(=O)CSCCN(CC)CC)C2(C)C(C)CCC3(CCC(=O)C32)C(C)C1O (centres undefined) (library stock concentration (final ~1000-fold dilution): 10 mM)
NF-kB SEAP reporter activity ([2]; agonist: LPS (TLR4) 0.1 ug/mL): 1.56
NF-kB SEAP reporter activity [2, 5]: 0.725
NF-kB SEAP reporter activity [2, 6]: 1.11
NF-kB SEAP reporter activity [2, 7]: 0.934

C=CC1(C)CC(OC(=O)CSCCN(CC)CC)C2(C)C(C)CCC3(CCC(=O)C32)C(C)C1O (centres undefined)
NF-kB SEAP reporter activity [1, 4]: 1.12

CNS(=O)(=O)CC1CCC(N(C)c2ncnc3[nH]ccc23)CC1.O=C(O)/C=C\C(=O)O (centres undefined)
NF-kB SEAP reporter activity [1, 3]: 0.344
NF-kB SEAP reporter activity [1, 4]: 0.601

CNS(=O)(=O)CC1CCC(N(C)c2ncnc3[nH]ccc23)CC1.O=C(O)/C=C\C(=O)O (centres undefined) (library stock concentration (final ~1000-fold dilution): 10 mM)
NF-kB SEAP reporter activity ([2]; agonist: LPS (TLR4) 0.1 ug/mL): 0.402
NF-kB SEAP reporter activity [2, 5]: 0.367
NF-kB SEAP reporter activity [2, 6]: 0.13
NF-kB SEAP reporter activity [2, 7]: 0.193

CCC(C)Nc1cc(C(=O)NC2CC3CCC(C2)N3c2ccc(C(=O)C3CC3)cn2)c(C)cc1C(N)=O (centres undefined) (library stock concentration (final ~1000-fold dilution): 10 mM)
NF-kB SEAP reporter activity ([2]; agonist: LPS (TLR4) 0.1 ug/mL): 0.213
NF-kB SEAP reporter activity [2, 5]: 0.206
NF-kB SEAP reporter activity [2, 6]: 0.0829
NF-kB SEAP reporter activity [2, 7]: 0.117

CCC(C)Nc1cc(C(=O)NC2CC3CCC(C2)N3c2ccc(C(=O)C3CC3)cn2)c(C)cc1C(N)=O (centres undefined)
NF-kB SEAP reporter activity [1, 3]: 0.273
NF-kB SEAP reporter activity [1, 4]: 0.34

CC(C)n1cnc2c(NCCc3ccc(O)cc3)nc(-c3csc4ccccc34)nc21 (library stock concentration (final ~1000-fold dilution): 10 mM)
NF-kB SEAP reporter activity ([2]; agonist: LPS (TLR4) 0.1 ug/mL): 3.02
NF-kB SEAP reporter activity [2, 5]: 1.56
NF-kB SEAP reporter activity [2, 6]: 0.535
NF-kB SEAP reporter activity [2, 7]: 0.662

CC(C)n1cnc2c(NCCc3ccc(O)cc3)nc(-c3csc4ccccc34)nc21
NF-kB SEAP reporter activity [1, 3]: 2.38
NF-kB SEAP reporter activity [1, 4]: 2.64

CC(C)NC(=N)NC(=N)Nc1ccc(Cl)cc1 (library stock concentration (final ~1000-fold dilution): 10 mM)
NF-kB SEAP reporter activity ([2]; agonist: LPS (TLR4) 0.1 ug/mL): 1.34
NF-kB SEAP reporter activity [2, 5]: 0.832
NF-kB SEAP reporter activity [2, 6]: 0.658
NF-kB SEAP reporter activity [2, 7]: 0.69

CC(C)NC(=N)NC(=N)Nc1ccc(Cl)cc1
NF-kB SEAP reporter activity [1, 3]: 1.04
NF-kB SEAP reporter activity [1, 4]: 1.38

CC(CS)C(=O)N1CCCC1C(=O)O (centres undefined)
NF-kB SEAP reporter activity [1, 3]: 0.911
NF-kB SEAP reporter activity [1, 4]: 1.08

CC(CS)C(=O)N1CCCC1C(=O)O (centres undefined) (library stock concentration (final ~1000-fold dilution): 10 mM)
NF-kB SEAP reporter activity ([2]; agonist: LPS (TLR4) 0.1 ug/mL): 1.07
NF-kB SEAP reporter activity [2, 5]: 1.03
NF-kB SEAP reporter activity [2, 6]: 1.02
NF-kB SEAP reporter activity [2, 7]: 0.944

Cc1nc2c(O)cccc2c(=O)[nH]1
NF-kB SEAP reporter activity [1, 3]: 0.857
NF-kB SEAP reporter activity [1, 4]: 1.06

Cc1nc2c(O)cccc2c(=O)[nH]1 (library stock concentration (final ~1000-fold dilution): 10 mM)
NF-kB SEAP reporter activity ([2]; agonist: LPS (TLR4) 0.1 ug/mL): 1.03
NF-kB SEAP reporter activity [2, 5]: 1.01
NF-kB SEAP reporter activity [2, 6]: 1.08
NF-kB SEAP reporter activity [2, 7]: 1.06

O=C(NNc1ccccc1)c1ccncc1 (library stock concentration (final ~1000-fold dilution): 10 mM)
NF-kB SEAP reporter activity ([2]; agonist: LPS (TLR4) 0.1 ug/mL): 1.51
NF-kB SEAP reporter activity [2, 5]: 0.976
NF-kB SEAP reporter activity [2, 6]: 0.592
NF-kB SEAP reporter activity [2, 7]: 0.782

O=C(NNc1ccccc1)c1ccncc1
NF-kB SEAP reporter activity [1, 3]: 1.18
NF-kB SEAP reporter activity [1, 4]: 1.36

Cn1c(=O)c(F)c(Nc2ccc(I)cc2F)c2c(=O)n(CC(O)CO)cnc21 (centres undefined) (library stock concentration (final ~1000-fold dilution): 10 mM)
NF-kB SEAP reporter activity ([2]; agonist: LPS (TLR4) 0.1 ug/mL): 0.214
NF-kB SEAP reporter activity [2, 5]: 0.227
NF-kB SEAP reporter activity [2, 6]: 0.121
NF-kB SEAP reporter activity [2, 7]: 0.251

Cn1c(=O)c(F)c(Nc2ccc(I)cc2F)c2c(=O)n(CC(O)CO)cnc21 (centres undefined)
NF-kB SEAP reporter activity [1, 3]: 0.197
NF-kB SEAP reporter activity [1, 4]: 0.195

c1cc(CN2CCCNCCNCCCNCC2)ccc1CN1CCCNCCNCCCNCC1
NF-kB SEAP reporter activity ([1]; library stock concentration (final ~1000-fold dilution): 2 mM water, agonist: Imiquimod (TLR7) […]): 0.828
NF-kB SEAP reporter activity ([1]; library stock concentration (final ~1000-fold dilution): 2 mM water, agonist: MPLA (TLR4) […]): 0.771

c1cc(CN2CCCNCCNCCCNCC2)ccc1CN1CCCNCCNCCCNCC1 (library stock concentration (final ~1000-fold dilution): 2 mM water)
NF-kB SEAP reporter activity ([2]; agonist: LPS (TLR4) 0.1 ug/mL): 0.992
NF-kB SEAP reporter activity [2, 5]: 0.867
NF-kB SEAP reporter activity [2, 6]: 0.994
NF-kB SEAP reporter activity [2, 7]: 1.14

C#Cc1cccc(Nc2ncnc3cc(OC)c(NC(=O)N4CC5CCN(C)C5C4)cc23)c1 (centres undefined) (library stock concentration (final ~1000-fold dilution): 10 mM)
NF-kB SEAP reporter activity ([2]; agonist: LPS (TLR4) 0.1 ug/mL): 3.99
NF-kB SEAP reporter activity [2, 5]: 0.205
NF-kB SEAP reporter activity [2, 6]: 0.732
NF-kB SEAP reporter activity [2, 7]: 0.783

C#Cc1cccc(Nc2ncnc3cc(OC)c(NC(=O)N4CC5CCN(C)C5C4)cc23)c1 (centres undefined)
NF-kB SEAP reporter activity [1, 3]: 1.09
NF-kB SEAP reporter activity [1, 4]: 1.4
